Data taken from PubChem BioAssay AID588453 (National Center for Advancing Translational Sciences (NCATS), 2011).
Where “and” joins values, the source holds several entries; their conditions need not be identical. Identical values can stand only once. Out of some 390,000 compounds screened, about 4,000 (1%) were called active. This list was built around the results that the source calls inconclusive (neither active nor inactive); the mix of calls is not that of the screen. Calls follow the shape of the dose curve; as a rule, active = well fitted inhibition curve with a large enough effect; inconclusive = small, poorly fitted or top-dose-only effect; inactive = no such curve, though single readings can be large or run the other way. Potencies of inconclusive entries are doubtful fits and often do not repeat. Some compounds were tested as several samples or in several runs, with calls that do not always agree.

Molecular target: Thioredoxin reductase 1, cytoplasmic (Rattus norvegicus) (UniProt O89049)
UniProt O89049, sequence (O89049 whole entry, looked up): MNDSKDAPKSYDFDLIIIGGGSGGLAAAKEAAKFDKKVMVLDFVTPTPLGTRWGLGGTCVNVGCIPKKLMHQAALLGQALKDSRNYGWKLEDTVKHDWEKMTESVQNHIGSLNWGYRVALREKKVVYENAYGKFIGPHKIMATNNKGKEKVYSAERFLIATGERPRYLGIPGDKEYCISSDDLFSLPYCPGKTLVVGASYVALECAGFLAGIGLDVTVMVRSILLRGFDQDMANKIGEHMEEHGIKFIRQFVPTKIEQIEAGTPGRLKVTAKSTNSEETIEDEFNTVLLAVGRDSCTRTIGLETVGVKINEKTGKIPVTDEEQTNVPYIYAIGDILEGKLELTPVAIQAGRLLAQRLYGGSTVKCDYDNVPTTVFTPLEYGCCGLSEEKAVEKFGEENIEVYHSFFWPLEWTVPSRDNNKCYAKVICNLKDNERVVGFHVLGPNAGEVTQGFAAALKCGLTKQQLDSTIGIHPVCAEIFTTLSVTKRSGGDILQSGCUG
Experiment: qHTS Assay for Inhibitors of Mammalian Selenoprotein Thioredoxin Reductase 1 (TrxR1): qHTS; also: nearly all actives have a fitted effect of over 65% in size
Details: recombinant rTrxR1, NADPH fluorescence consumption, selenite substrate; series mostly up to 114 µM; activity change, negative = inhibition: at the top concentration
Summary of the method: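 Rat TrxR1 (90 nM in the dispensed reagent) was pre-reduced with 400 uM NADPH for 5 min at room temperature, then incubated with compound for 15 min. After 400 uM selenite was added, NADPH fluorescence (Ex 340/Em 450 nm) was followed for 8 min.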
% is scaled to controls: 0 for no effect and ±100 for the full control effect; potency is read from the fitted curve at half-maximal effect; tags tell the direction and shape of the fitted curve.

Structure (SMILES)	activity change, negative = inhibition	Potency
CCOC(=O)c1c(NC(=O)CSc2cn(CCNC(=O)c3ccc(OC)c(OC)c3)c3ccccc23)sc2c1CCCC2	inactive: 12.6%	
COc1cccc(CN(C)CC(=O)NC(=O)NCc2ccccc2)c1	inactive: -17.3%	
O=C(O)CCC(=O)N1N=C(c2ccco2)CC1c1ccco1 (stereo not given)		inconclusive: 39.8 µM [inhibitor, partial curve, poor fit]
O=C1C(Cl)=C(Nc2ccc3cn[nH]c3c2)C(=O)c2ccccc21		inconclusive: 0.316 µM [inhibitor, full curve, poor fit]
COc1ccc(NC(=O)CSc2ccc(-c3ccco3)nn2)c(OC)c1		inconclusive: 44.7 µM [inhibitor, partial curve]
CCOc1cc(-c2conc2N)cc(OCC)c1OCC		inconclusive: 22.4 µM [inhibitor, full curve, poor fit]
CCCCNc1nc2c(c(=O)n(C)c(=O)n2C)n1CC(O)COc1ccccc1C (stereo not given)	inactive: -15.8%	
CCOC(=O)c1cc2c(=O)n3cccc(C)c3nc2n(Cc2ccco2)c1=NC(=O)c1cccnc1		inconclusive: 1.12 µM [inhibitor, full curve, poor fit]
CC1=C(C(=O)Nc2ccc(C(=O)NCCCN3CCCCC3)cc2)SCCO1	inactive: -17%	
COc1ccc(C(=O)N2CCN(c3c(C)cccc3C)CC2)cc1OC		inconclusive: 7.08 µM [inhibitor, partial curve]
C=C1C(=O)O[C@@H]2[C@H]3O[C@]3(C)CCC=C(C)CC[C@@H]12		active: 16.8 µM
Cc1ccc(Cl)cc1NC(=O)N1CCC(CN2CCCCCC2)CC1		inconclusive: 44.7 µM [inhibitor, partial curve, poor fit]
Cc1ccccc1NC(=O)c1cccc2c(=O)c3c([nH]c12)CCCC3	inactive: -0.728%	
COC(=O)Nc1ccc2ccc3c(NC(=O)OC)ccc4ccc1c2c43		inconclusive: 44.7 µM [inhibitor, partial curve, poor fit]
C[C@@H]1NC(=O)[C@H](CCCN=C(N)N)NC(=O)c2cc([N+](=O)[O-])cc(I)c2NCCC[C@@H](C(N)=O)NC1=O		inconclusive: 15.8 µM [inhibitor, single point]
COc1ccccc1NC(=O)C1CCN(S(=O)(=O)c2ccc3c(c2)CC(C)N3C(C)=O)CC1 (stereo not given)	inactive: 11.7%	
CC(=O)N1CCC2(CC1)CC(=O)c1cc(OCC(=O)NCc3ccc(C)cc3)ccc1O2	inactive: 19.5%	
C/C(CC(=O)Nc1ccc(Cl)c(Cl)c1)=N\NC(N)=S		inconclusive: 89.1 µM [inhibitor, single point]
O=C(c1ccc(OCC2CCCO2)cc1)N1CCN(S(=O)(=O)c2cccc(F)c2)CC1 (stereo not given)	inactive: -6.7%	
CCCN(CCC)C(=O)Cn1c(SCc2cccc(C(F)(F)F)c2)nc2cccnc21		inconclusive: 25.1 µM [inhibitor, single point]
CC(=O)C[C@@H](O)CC(=O)[C@H]1OC(=O)CCCCCCc2ccccc21		inconclusive: 39.8 µM [inhibitor, single point]
O=C1N(Cc2cccc(Cl)c2)C[C@@H]2C[C@@H](c3cccn3-c3cccnc3)N3CCC[C@@]123		inconclusive: 50.1 µM [inhibitor, partial curve]

Structure (SMILES)	activity change, negative = inhibition	Potency
CCOC(=O)c1[nH]c(=O)[nH]c1CSc1ccccn1		inconclusive: 15.8 µM [inhibitor, partial curve, poor fit]
CCOCCc1nn2c(=O)cc(COC(=O)Cc3ccccc3)nc2s1	inactive: 3.31% [at 57.1 µM]	
COc1ccc(CCNC(=O)c2nc(SCc3ccccc3F)ncc2Cl)cc1OC	inactive: 8.53%	
Cc1cccc(C(=O)NC(=S)NNC(=O)COc2c(C)cccc2C)c1		inconclusive: 10 µM [inhibitor, full curve]
CCOC(=O)c1cc2c(=O)n3ccccc3nc2n(Cc2ccco2)c1=NC(=O)c1ccc(C)c(C)c1		inconclusive: 4.47 µM [inhibitor, partial curve, poor fit]
CCOc1cccc(C(=O)NC(=S)Nc2ccc(N3CCCC3)cc2)c1		inconclusive: 3.16 µM [inhibitor, partial curve, poor fit]
Cc1cc(N2CCCC2)ccc1NC(=O)COc1ccc(Cl)cc1		inconclusive: 35.5 µM [inhibitor, full curve]
CCCn1c(=S)[nH]c2cc(C(=O)N3CCCC(C(=O)OCC)C3)ccc2c1=O (stereo not given)		inconclusive: 22.4 µM [inhibitor, partial curve, poor fit]
COc1cc(C(=O)Cc2nc3ccccc3n2C)cc(OC)c1OC	inactive: 24%	
CC1=C(C(=O)OCC(Cl)(Cl)Cl)N2C(=O)C(NC(=O)Cc3ccccc3)C2SC1 (stereo not given)	inactive: 15.7% [at 57.1 µM]	
COc1cccc(CNC(=O)CCC2CCCN(C3CCOCC3)C2)c1 (stereo not given)		inconclusive: 35.5 µM [inhibitor, single point]
O=C(O)c1ccccc1N/N=C/C1=C(N2CCOCC2)C(=C\c2ccccc2)/CC1		inconclusive: 50.1 µM [inhibitor, partial curve]
CC(=O)N1N=C(c2ccco2)CC1c1ccc(C)cc1 (stereo not given)		inconclusive: 79.4 µM [inhibitor, single point]
COc1ccccc1NC(=O)CSc1nc(-c2ccc(C)cc2)nc2c1Cc1c(CO)cnc(C)c1O2		inconclusive: 44.7 µM [inhibitor, partial curve, poor fit]
COc1ccc(C2=CC3=C(Br)C(=O)C(C)(OC(=O)C4CCCC4)C(=O)C3=CO2)cc1 (stereo not given)		inconclusive: 56.2 µM [inhibitor, single point]
O=C(NC1CCCCCCC1)C1CCN(S(=O)(=O)N2CCC3(CC2)OCCO3)CC1		inconclusive: 2.82 µM [inhibitor, partial curve]
CC(=O)C[C@H]1c2cc(F)cc(F)c2S(=O)(=O)N1C1CCN(Cc2ccccc2)CC1	inactive: 2.14%	
Cn1c(=O)c(=O)n(C)c2cc(S(=O)(=O)Nc3ccc(OC(F)(F)F)cc3)ccc21	inactive: 1.09%	
COc1ccc(NC(=O)[C@H](C)NC(N)=O)cc1S(=O)(=O)Nc1cc(C)ccc1Br	inactive: 13.2% [at 57.1 µM]	
Cc1ccc(SCC(=O)N2c3ccccc3Sc3ccccc32)cc1		inconclusive: 44.7 µM [inhibitor, partial curve]
CC(=O)O[C@H]1C[C@@]2(O)[C@@H](OC(=O)c3ccccc3)C3[C@@](C)([C@@H](O)C[C@H]4OC[C@@]34OC(C)=O)[C@@H](O)[C@H](OC(C)=O)C(=C1C)C2(C)C (stereo not given in full)	inactive: 10.9%	
O=C1C=CC(=O)N1CCNc1ncc(C(F)(F)F)cc1Cl		active: 2 µM

Structure (SMILES)	activity change, negative = inhibition	Potency
COc1ccc(/C=C/C(=O)NCCSCc2ccco2)cc1		inconclusive: 15.8 µM [inhibitor, partial curve, poor fit]
Cc1cc(=O)c2c(O)c(O)ccc2o1	inactive: 8.33% [at 57.1 µM]	
C(=C\c1nc(-c2cccnc2)no1)/c1ccccc1	inactive: 14.3% [at 57.1 µM]	
COc1ccc(C2=NO[C@H]3C[C@](C(=O)NC(C)C)(S(=O)(=O)c4ccccc4)C[C@@H]23)cc1		inconclusive: 0.708 µM [inhibitor, partial curve, poor fit]
CSc1ccccc1NC(=S)Nc1cc(C)cc(C)c1		inconclusive: 28.2 µM [inhibitor, partial curve, poor fit]
Cc1cc(-n2c(C)cc(C(=O)CCl)c2C)no1		inconclusive: 70.8 µM [inhibitor, single point]
CC(=O)OCC1=C(C(=O)O)N2C(=O)[C@@H](NC(=O)Cc3cccs3)[C@H]2SC1		inconclusive: 44.7 µM [inhibitor, partial curve] and inconclusive: 18.9 µM [inhibitor, partial curve] and inconclusive: 16.8 µM [inhibitor, partial curve]
CC1(C)Cc2c(c(=S)nc(-c3ccccc3)n2CCOCCO)CO1		inconclusive: 50.1 µM [inhibitor, partial curve, poor fit]
O=C(c1cccc(F)c1)N1CCN(S(=O)(=O)Cc2ccccc2)CC1	inactive: 9.42%	
O=C(O)c1ccc(-n2cccc2/C=C2/NC(=O)N(c3cccc(Cl)c3)C2=O)cc1		inconclusive: 56.2 µM [inhibitor, partial curve, poor fit]
O=c1cc(CCl)nc2sc3ccccc3n12		inconclusive: 25.1 µM [inhibitor, single point]
COc1ccc(CCNC(=S)NC(=O)c2ccccc2)cc1OC		inconclusive: 14.1 µM [inhibitor, full curve, poor fit]
O=C1N=C(N2CCN(c3ccccc3)CC2)S/C1=C\c1ccco1		inconclusive: 44.7 µM [inhibitor, partial curve]
CNC(C)C#Cc1c(-c2cc(OC)c(OC)c(OC)c2)noc1C (stereo not given)		active: 70.8 µM
C=CCOC(=O)C(C#N)c1nc2ccccc2nc1N1CCN(Cc2ccc3c(c2)OCO3)CC1 (stereo not given)	inactive: 9.17% [at 57.1 µM]	
N#CC1=C2SCN(C3CCCCC3)CN2C(=O)CC1c1c(F)cccc1Cl (stereo not given)		inconclusive: 11.2 µM [inhibitor, partial curve, poor fit]
Cc1ccc2[nH]cc(C(c3ccccc3)c3ccc(C)s3)c2c1 (stereo not given)	inactive: -0.0844%	
CCOC(=O)N1CCC(NC(=O)c2ccc(CS(=O)c3cccc(Cl)c3)o2)CC1 (stereo not given)		inconclusive: 25.1 µM [inhibitor, partial curve]
NS(=O)(=O)c1ccc(NC(=S)NCc2cccc(Cl)c2)cc1		inconclusive: 10 µM [inhibitor, partial curve, poor fit]
BrC(=C\c1ccccc1)/C=N/Nc1nc2ccccc2[nH]1		inconclusive: 63.1 µM [inhibitor, single point]
O=C1COc2ccc(C(=O)c3ccccc3C(=O)NCc3ccco3)cc2N1		inconclusive: 39.8 µM [inhibitor, partial curve]
